# Where “and” joins values, the source holds several entries; their conditions need not be identical. Identical values can stand only once. Hit rate of the full screen: of about 400,000 compounds, about 2,200 (0.55%) were called active. This list was built around the results that the source calls inconclusive (neither active nor inactive); the mix of calls is not that of the screen. Calls come from the whole dose curve; as a rule, active = well fitted inhibition curve with a large enough effect; inconclusive = small, poorly fitted or top-dose-only effect, or another doubt; inactive = no such curve, though single readings can be large or run the other way. Potencies of inconclusive entries are doubtful fits and often do not repeat. Positions of bridges follow the written chain, without caps; N, C: chain ends. Non-standard residues stand in square brackets, D forms with d. Residues, ends and D or L forms follow the SMILES beside them. ξ: configuration not given here. *: point of attachment. ξDab(CH2SO3H) = NC(CCNCS(=O)(=O)O)C(=O)O; Heptanoyl(6-Me) = CC(C)CCCCC(=O)*; Dab = NCC[CH](N)C(=O)O
# Target: DNA polymerase kappa (Homo sapiens) (UniProt Q9UBT6)
# Assay: qHTS for Inhibitors of Polymerase Kappa
# Settings: purified Pol kappa, fluorescent DNA synthesis assay, 10 min; series mostly up to 107 µM; activity, negative = inhibition: at the top concentration
# Method in brief: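 50 nM final substrate added after 15 min RT preincubation of 10 nM Pol kappa with compound; fluorescence read at 0 and 10 min.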
# % is set by controls: 0 for no effect and ±100 for the full control effect; potency is the fitted concentration of half-maximal effect; tags give direction and shape of the fitted curve.
# Chain of UniProt Q9UBT6 (Q9UBT6 whole entry, looked up): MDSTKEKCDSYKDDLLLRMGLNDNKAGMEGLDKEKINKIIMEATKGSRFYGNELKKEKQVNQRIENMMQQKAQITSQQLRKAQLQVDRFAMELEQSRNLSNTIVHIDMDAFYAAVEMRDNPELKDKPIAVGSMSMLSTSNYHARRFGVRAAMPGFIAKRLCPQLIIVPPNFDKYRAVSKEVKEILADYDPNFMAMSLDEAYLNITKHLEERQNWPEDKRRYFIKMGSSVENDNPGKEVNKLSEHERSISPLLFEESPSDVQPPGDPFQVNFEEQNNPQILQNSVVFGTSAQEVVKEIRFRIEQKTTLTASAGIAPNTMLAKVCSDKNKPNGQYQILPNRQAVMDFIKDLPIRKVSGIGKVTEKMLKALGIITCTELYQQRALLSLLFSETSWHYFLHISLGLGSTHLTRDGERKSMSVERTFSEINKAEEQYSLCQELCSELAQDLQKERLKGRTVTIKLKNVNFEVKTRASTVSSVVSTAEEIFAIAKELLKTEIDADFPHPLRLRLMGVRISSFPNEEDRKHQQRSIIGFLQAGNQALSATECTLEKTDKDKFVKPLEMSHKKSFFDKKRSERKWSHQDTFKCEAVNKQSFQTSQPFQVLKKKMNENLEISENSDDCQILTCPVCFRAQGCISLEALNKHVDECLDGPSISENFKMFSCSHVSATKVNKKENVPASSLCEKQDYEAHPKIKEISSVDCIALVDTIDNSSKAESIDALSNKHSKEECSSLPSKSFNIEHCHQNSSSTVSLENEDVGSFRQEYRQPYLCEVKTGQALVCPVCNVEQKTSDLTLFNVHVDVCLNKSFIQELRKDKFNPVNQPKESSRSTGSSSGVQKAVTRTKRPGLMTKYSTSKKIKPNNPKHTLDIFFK
Compound,Potency,"activity, negative = inhibition"
CCCCCCCCCCCCC/C=C/[C@@H](O)[C@H](CO)NC(=O)CCCCC,"inconclusive: 2.67 µM [inhibitor, partial curve, poor fit]",
C=CCn1c(SCC(=O)N2CCOCC2)nc2scc(-c3ccco3)c2c1=O,"inconclusive: 39.8 µM [inhibitor, full curve, poor fit]",
CCC(C)C1NC(=O)C(CCNCS(=O)(=O)O)NC(=O)C(NC(=O)C(CCNCS(=O)(=O)O)NC(=O)C(NC(=O)C(CCNCS(=O)(=O)O)NC(=O)CCCCC(C)C)C(C)O)CCNC(=O)C(C(C)O)NC(=O)C(CCNCS(=O)(=O)O)NC(=O)C(CCNCS(=O)(=O)O)NC(=O)C(C(C)CC)NC1=O (stereo not drawn) ({Heptanoyl(6-Me)}-[ξDab(CH2SO3H)]T[ξDab(CH2SO3H)][Dab][ξDab(CH2SO3H)]II[ξDab(CH2SO3H)][ξDab(CH2SO3H)]T; lactam 4-C; configuration not given here),"inconclusive: 39.8 µM [inhibitor, partial curve, poor fit]",
Ic1ccc(N2CCN(Cc3c[nH]c4ncccc34)CC2)cc1,"inconclusive: 10.6 µM [inhibitor, partial curve]",
O=C(CCCn1c(SCC(=O)c2ccc(O)c(O)c2)nc2ccccc2c1=O)NCC1CCCO1 (stereo not drawn),active: 20 µM,
CCCC[C@H](CC)CN=C(N)NC(N)=NCCCCCCN=C(N)NC(N)=NC[C@@H](CC)CCCC,,inactive: -7.07% [at 12 µM]
COc1cc2[nH]c3c(=O)n(CCN4CCCCC4)cnc3c2cc1OC,active: 22.4 µM,
COc1ccc(C2=NN(C(=O)CCCC(=O)O)C(c3cn(-c4ccccc4)nc3-c3ccccc3)C2)cc1 (stereo not drawn),"inconclusive: 50.1 µM [inhibitor, partial curve]",
Cc1cc(NS(=O)(=O)c2ccc(NC(=O)c3cnc4sccn4c3=O)cc2)nc(C)n1,"inconclusive: 56.2 µM [inhibitor, partial curve, poor fit]",
CN(C[C@H](Cc1ccccc1)N(C[C@H](CC1CCCCC1)N(CCc1ccccc1)N=O)N=O)N=O,"inconclusive: 31.6 µM [inhibitor, partial curve, poor fit]",
Cc1ccc(CNc2ncnc3onc(C)c23)cc1,,inactive: 9.07%
COc1cccc2c1C(=O)c1c(O)c3c(c(O)c1C2=O)C[C@@](O)(C(C)=O)C[C@@H]3O[C@H]1C[C@H](N)[C@H](O)[C@H](C)O1,active: 5.01 µM and active: 11.9 µM and active: 5.62 µM,
COc1ccc(OC)c([N+](=O)[O-])c1C(N)=O,"inconclusive: 100 µM [inhibitor, single point]",
O=C(O)c1ccc(-c2ccc(/C=C3\NC(=O)N(Cc4ccc(Cl)cc4)C3=O)o2)cc1,"inconclusive: 89.1 µM [inhibitor, single point]",
Cc1ccc(C)c2[nH]c(=O)c(CN(Cc3cccnc3)C(=S)NCc3ccco3)cc12,"inconclusive: 79.4 µM [inhibitor, single point]",
Cc1ccc(Cc2cnc(N)s2)o1,active: 15.8 µM,
CCC1CCCCN1C(=O)Cn1nc([N+](=O)[O-])c(Cl)c1C (stereo not drawn),"inconclusive: 3.55 µM [inhibitor, partial curve, poor fit]",
CCCS(=O)(=O)N1CCC(N2CCN(Cc3ccc(F)cc3)C(=O)C2=O)CC1,,inactive: -6.23% [at 60.1 µM]
CCOC(=O)c1ccc(NC(=O)CN2Cc3ccccc3C2=O)cc1,"inconclusive: 89.1 µM [inhibitor, single point]",

Compound,Potency,"activity, negative = inhibition"
COc1ccc(C(CC(=O)N2CCCC2)c2c(OC)cc(OC)c3c(-c4ccccc4)cc(=O)oc23)cc1 (stereo not drawn),active: 79.4 µM,
COc1cc(C2C(C#N)=C(N)Oc3cc(C)oc(=O)c32)cc2c1OCO2 (stereo not drawn),"inconclusive: 89.1 µM [inhibitor, single point]",
Cc1ccc(CNC(=O)c2ccc(N3CCC4(CC3)CC(c3ccccc3)=NO4)c(NC(=O)c3ccccc3)c2)cc1,,inactive: 3.35%
Cc1ccccc1CSCC(=O)NC(=O)NCc1ccco1,"inconclusive: 89.1 µM [inhibitor, single point]",
COc1ccc(C(=O)N2CCOC2CNC(=O)C(=O)NCc2ccccc2Cl)cc1 (stereo not drawn),,inactive: -9.47%
O=C(Cc1ccc(S(=O)(=O)N2CCOCC2)s1)Nc1ccc(S(=O)(=O)N2CCCCC2)cc1,,inactive: -13.2%
Cc1ccc(N=C2NC(=O)/C(=C\c3ccco3)S2)cc1,"inconclusive: 79.4 µM [inhibitor, single point]",
Cc1c(OCC(=O)N[C@H](C(=O)O)c2ccccc2)ccc2c3c(c(=O)oc12)CCCC3,"inconclusive: 79.4 µM [inhibitor, partial curve, poor fit]",
CC(CN1CCCC1)OC(=O)c1ccc(Br)cc1 (stereo not drawn),"inconclusive: 79.4 µM [inhibitor, partial curve, poor fit]",
C=C(C)C(=O)Nc1cccc(C2=NOC3(C2)C[C@@H](C(N)=O)N(C(=O)c2cc([N+](=O)[O-])cc([N+](=O)[O-])c2C)C3)c1 (stereo partly drawn),active: 50.1 µM,
Cc1nn(-c2ccc(N3CCCC3)nn2)c(C)c1CCC(=O)N1CCN(c2ccccc2F)CC1,,inactive: -14.1%
COc1cc(OC)cc(-c2c(-c3ccsc3)c3cc(Br)ccc3n2C)c1,"inconclusive: 89.1 µM [inhibitor, partial curve, poor fit]",
O=c1c(Cl)c(N/N=C/c2ccc(Br)cc2)cnn1-c1ccccc1,"inconclusive: 89.1 µM [inhibitor, single point]",
COc1ccc(CNC(=O)c2cnc3ccc(C)cn3c2=O)cc1,,inactive: -16.1%
CN1CC(=O)N(CC(=O)Nc2ccc(OC(F)(F)F)cc2)c2ccccc2C1=O,,inactive: -2.42% [at 60.1 µM]
O=c1c2oc3ccccc3c2n(Cc2cccc(F)c2)c(=O)n1Cc1ccc2c(c1)OCO2,,inactive: -16.5%
N#Cc1c(NC(=O)c2ccc([N+](=O)[O-])o2)sc2c1CCC2,"inconclusive: 100 µM [inhibitor, single point]",
OCCNc1c2ccccc2nc2c(F)c(F)c(F)c(F)c12,,inactive: -5.86%
CC(=O)Nc1ccc(C(=O)Nc2cccc(S(=O)(=O)N(C)c3ccccc3)c2)cc1,,inactive: -6.31%
